This note sets out measurements from the RNAGym collection of RNA variant scans (doi:10.1073/pnas.2313332121).

Variants at the floor of the assay are shown more often than the library holds them.

First the molecules themselves.
B1: TPR 5TU (parent)
chain: GGAUCUUCUCGAUCUAACAAAAAAGACAAAUCUGCCACAAAGCUUGAGAGCAUCUUCGGAUGCAGAGGCGGCAGCCUUCGGUGGCGCGAUAGCGCCAACGUUCUCAACUAUGACACGCAAAACGCGUGCUCCGUUGAAUGGAGUUUAUCAUG

Variants of B1 are the subject of the series. Description: polymerase ribozyme fitness, log enrichment relative to wild type (log ratio); higher = more active; in vitro selection for triplet polymerase activity. The gist of the method:
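Genotype fitness is the logarithm of its enrichment divided by wild-type enrichment, using inverse-variance-weighted averages of replicates. That logarithm is base 2. Enrichment was measured by Illumina sequencing of input and output libraries from one triplicate in vitro selection round, with frozen incubation at −7 °C, on PCR-built, transcribed mutant libraries of each subunit of a heterodimeric triplet polymerase ribozyme, retaining genotypes with ≥10 input reads and ≥1 read per output.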
For A3U A23U U61A U78G C85U G126A, the “polymerase ribozyme fitness (log ratio)” value is not above -4.2.
As for A3C C18G G25C C72A C85A U139C G140U, the “polymerase ribozyme fitness (log ratio)” value was not above -4.2.
For A3C U6G G25U G83A the value was -3.47; for A3C U44G U55G U56A A66G C96U A97U G100A U148A, not above -4.2.
For the variant A3U G58A C96G, the “polymerase ribozyme fitness (log ratio)” value was -1.09.
Regarding A3U A16U A17G A23C C93U A106G A122G U139G, the “polymerase ribozyme fitness (log ratio)” value is not above -4.2.
For the variant A3G U53G C85G C93G C125U G141A A142G, the “polymerase ribozyme fitness (log ratio)” value was not above -4.2.
A3G U9G G42U C85G: the “polymerase ribozyme fitness (log ratio)” value was not above -4.2.
Turning to A3U C51U C95U, the “polymerase ribozyme fitness (log ratio)” value was -1.09.
Turning to A3C G68U C87A U144C, the “polymerase ribozyme fitness (log ratio)” value was not above -4.2.
Consider A3G U4A A17C A52G G94C U102C C131U, for which the “polymerase ribozyme fitness (log ratio)” value was -1.71.
In the case of A3U A22U A28G U61G G94A A98U C99A C125A U134G, the “polymerase ribozyme fitness (log ratio)” value was not above -4.2.
Turning to A3G C5G G84A G88A, the “polymerase ribozyme fitness (log ratio)” value was -3.09.
Then A3U A22U A26U A49G U55C G88U C93G, with not above -4.2; and A3U A23U G94A, with not above -4.2; and A3U A19U A49U C51U G68A C93U C125A, with not above -4.2.
Regarding A3U C27U U44A G94A C95U A107C A147U C149G, the “polymerase ribozyme fitness (log ratio)” value is not above -4.2.
A3C U56G C93U C114G U134A U148C: the “polymerase ribozyme fitness (log ratio)” value is not above -4.2.
Consider A3G A22C A23G C36A C75U C95A A97G A120U, for which the “polymerase ribozyme fitness (log ratio)” value was not above -4.2.
Take A3C C57A G84A G88C C95U A120U U148A: the “polymerase ribozyme fitness (log ratio)” value is not above -4.2.
For A3C G25C C69U U77G G84A A107G C132U the value was not above -4.2; for A3U C99U C103A U109C C114U U148C, not above -4.2; for A3U C8G, not above -4.2.
A3C U31G C69A C85G G141U: the “polymerase ribozyme fitness (log ratio)” value was not above -4.2.
For A3U G46A U56A U61A U78G C99G the value was not above -4.2; for A3G A16C A66U U82G G83U C131U, not above -4.2.
Consider A3C C87G, for which the “polymerase ribozyme fitness (log ratio)” value is -3.29.
Then A3U C10U C54A U55A, with -1.97; and A3U U6A C18U C35U U61A G62C G67A G128C U144C, with not above -4.2.
Then A3U A20C A26U C57G C108U, with not above -4.2.
On to A3C U4G U9A A40G G48U G50A U56A G86U C131U, for which the “polymerase ribozyme fitness (log ratio)” value was not above -4.2.
For the variant A3G C57U G81A G84A C85G C93G C123U G133U A147C U151G G152C, the “polymerase ribozyme fitness (log ratio)” value was not above -4.2.
As to A3G A22U A40G A60G A64G C129A A142C U146A, the “polymerase ribozyme fitness (log ratio)” value is not above -4.2.
Consider A3U A22U A39G A40U U55A G65C G88U A91C C108A C125A U144A, for which the “polymerase ribozyme fitness (log ratio)” value is not above -4.2.
A3G A24U C69G C93G A119G C132G U139A: the “polymerase ribozyme fitness (log ratio)” value was not above -4.2.
As for A3C U101G C105U A138C, the “polymerase ribozyme fitness (log ratio)” value is -4.17.
A3C A91U: the “polymerase ribozyme fitness (log ratio)” value is not above -4.2.
For the variant A3C C87A G88A A137U, the “polymerase ribozyme fitness (log ratio)” value was not above -4.2.
In the case of A3U G59C C85U G126A, the “polymerase ribozyme fitness (log ratio)” value was -0.686.
On to A3C G58A C87U, for which the “polymerase ribozyme fitness (log ratio)” value is -0.495.
Then A3G A16C G50A C54G C99G, with not above -4.2.
With A3G G58A G86U U111G U135G G136U U145A, the “polymerase ribozyme fitness (log ratio)” value is not above -4.2.
For A3C A60C G71A C85A G143C the value was not above -4.2; for A3C C57U G71A U78A C85A C118U U151C, not above -4.2; for A3U A26U G48U U55G C103A G126A, not above -4.2.
For A3G U44G C57A G59U G68C C87G, the “polymerase ribozyme fitness (log ratio)” value was not above -4.2.
Turning to A3U C14G A41U C93A U146G A150U, the “polymerase ribozyme fitness (log ratio)” value is not above -4.2.
For A3U C8A U13G U90A C93A A107G G143C the value was not above -4.2; for A3C U6A C35A C95U U102C C103G G143U, not above -4.2.
In the case of A3U A30U G86U C87U, the “polymerase ribozyme fitness (log ratio)” value was not above -4.2.
As to A3G A29U G46C C93U C96A A115U, the “polymerase ribozyme fitness (log ratio)” value is not above -4.2.
With A3C C87G A97U, the “polymerase ribozyme fitness (log ratio)” value is not above -4.2.
Turning to A3G U7G A21U A23G A29G C95G, the “polymerase ribozyme fitness (log ratio)” value is not above -4.2.
Consider A3U C18U G50A G68A C76A G92C C93U, for which the “polymerase ribozyme fitness (log ratio)” value is not above -4.2.
With A3C G48U C69U, the “polymerase ribozyme fitness (log ratio)” value was -2.88.
A3U C5G C32A C43A G84A G133A: the “polymerase ribozyme fitness (log ratio)” value was not above -4.2.
On to A3G A20U C36A C87G C129A U139C U146G, for which the “polymerase ribozyme fitness (log ratio)” value was not above -4.2.
For the variant A3C C14G A24U G70A C79U C87A A113G C131A, the “polymerase ribozyme fitness (log ratio)” value was not above -4.2.
With A3U A20U C32U G70U G84U A120C, the “polymerase ribozyme fitness (log ratio)” value was not above -4.2.
Regarding A3U A24G G46A U53A U109G, the “polymerase ribozyme fitness (log ratio)” value is not above -4.2.
For A3C U7A C10U U53A G92C A138G the value was not above -4.2; for A3G C32G A41C C57U A73U G81C G88C A150G, not above -4.2; for A3G A16U G25U A41U G46A U82G, not above -4.2.
For A3U A60G U77C G83A G88U U104C A122C the value was not above -4.2; for A3C C27U C35G C57A G84A C87U, not above -4.2; for A3U A16G A30U C54U U55G U56A G68U G88C, not above -4.2.
For A3C C69U G92A C114A C118A G133C, the “polymerase ribozyme fitness (log ratio)” value is not above -4.2.
As for A3U U4C G136U U139G, the “polymerase ribozyme fitness (log ratio)” value was not above -4.2.
Take A3C A49G G86A C105A C108A: the “polymerase ribozyme fitness (log ratio)” value was not above -4.2.
In the case of A3U C14G A28C A91U A97C A122C, the “polymerase ribozyme fitness (log ratio)” value is not above -4.2.
As to A3C U13G G62A A66C U145A, the “polymerase ribozyme fitness (log ratio)” value was not above -4.2.
As to A3U C14G A30U U55G C95U, the “polymerase ribozyme fitness (log ratio)” value is not above -4.2.
Consider A3U A28C G50A G67U A89U G141C, for which the “polymerase ribozyme fitness (log ratio)” value is not above -4.2.
Consider A3U C36A G42C C87A A89G G100C, for which the “polymerase ribozyme fitness (log ratio)” value was not above -4.2.
For A3C A52U C85U A91U U148A, the “polymerase ribozyme fitness (log ratio)” value is not above -4.2.
Turning to A3C U6A U13G G50A C76U A137C G141C, the “polymerase ribozyme fitness (log ratio)” value was not above -4.2.
For A3U G59C the value was -0.00695; for A3C G58A G94A, -0.578.
For A3C C10G C14G A40G A120C A142C, the “polymerase ribozyme fitness (log ratio)” value is not above -4.2.
Consider A3U C8U A20G A97U, for which the “polymerase ribozyme fitness (log ratio)” value was not above -4.2.
Take A3U A26G U61A G92A: the “polymerase ribozyme fitness (log ratio)” value was not above -4.2.
Take A3U C18G A47G U61G A91U A97G: the “polymerase ribozyme fitness (log ratio)” value is not above -4.2.
Then A3C G42C C54U U55C C57G C96G G128A, with not above -4.2; and A3U G58A C87G U101C A113U C131G, with not above -4.2.
